Measurements from the RNAGym collection of RNA variant scans (doi:10.1073/pnas.2313332121).
Variants at the floor of the assay are shown more often than the library holds them.

B1: TPR 5TU (parent)
chain: GGAUCUUCUCGAUCUAACAAAAAAGACAAAUCUGCCACAAAGCUUGAGAGCAUCUUCGGAUGCAGAGGCGGCAGCCUUCGGUGGCGCGAUAGCGCCAACGUUCUCAACUAUGACACGCAAAACGCGUGCUCCGUUGAAUGGAGUUUAUCAUG

Variants of: B1
Assay: polymerase ribozyme fitness, log enrichment relative to wild type (log ratio); higher = more active; in vitro selection for triplet polymerase activity
How it was run: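 Genotype fitness is the logarithm of its enrichment divided by wild-type enrichment, using inverse-variance-weighted averages of replicates. That logarithm is base 2. Enrichment was measured by Illumina sequencing of input and output libraries from one triplicate in vitro selection round, with frozen incubation at −7 °C, on PCR-built, transcribed mutant libraries of each subunit of a heterodimeric triplet polymerase ribozyme, retaining genotypes with ≥10 input reads and ≥1 read per output.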

| Variant | polymerase ribozyme fitness (log ratio) |
| --- | --- |
| G48C C63U C79G C85U A98U C105U U111G | ≤ -4.2 |
| G48C C76A U90G U130G | ≤ -4.2 |
| G48C C76U | -3.15 |
| G48C C87A C105U U144A | ≤ -4.2 |
| G48C C96A U111A A138C | ≤ -4.2 |
| G48C C96U A110G | ≤ -4.2 |
| G48C C99U | -1.72 |
| G48C G50A U55A | -3.03 |
| G48C G50U G58U G83C C95G U101G G128U | ≤ -4.2 |
| G48C G59A A64U C85U C87A A122G A137C | ≤ -4.2 |
| G48C G59C G68A A91G G100A | ≤ -4.2 |
| G48C G59C U102G G143U U144G | ≤ -4.2 |
| G48C G70A C75G C87G C93G G140A G152A | -4.11 |
| G48C G84A G126A G143C A150C | ≤ -4.2 |
| G48C G84U C103G C108U U135C | ≤ -4.2 |
| G48C G86A C96U C105G C108G U148A | ≤ -4.2 |
| G48C G88U A89G U134A U135A | ≤ -4.2 |
| G48C G92U | -1.69 |
| G48C U53C C87U U145C | -2.69 |
| G48C U55A A122U | 0.121 |
| G48C U55A U56G G88A A119C | ≤ -4.2 |
| G48C U111G G141A | ≤ -4.2 |
| G48U A52G C57G G74C A113U A119C G128A | ≤ -4.2 |
| G48U A73G A122C U146C | -0.965 |

| Variant | polymerase ribozyme fitness (log ratio) |
| --- | --- |
| G48U C72G C79U A91U C105U C131A U148A | ≤ -4.2 |
| G48U C96G | -1.13 |
| G48U C96U G128A | ≤ -4.2 |
| G48U C116U | -0.65 |
| G48U G50U G59A C96U G140U | ≤ -4.2 |
| G48U G59C G81A A97U | -1.88 |
| G48U G83A G92A | ≤ -4.2 |
| G48U U53A C79A C105G C129U | ≤ -4.2 |
| G48U U53A C85U | -1.94 |
| G48U U55A C96G A115U | -4.16 |
| G48U U55A C99U | -2.23 |
| G48U U139A | ≤ -4.2 |
| A49C A52C C54A G74U C76G C125U | ≤ -4.2 |
| A49C A52G U77G U90A G141U | ≤ -4.2 |
| A49C A60C G83C C129G | ≤ -4.2 |
| A49C A66C G81C G83U C99U U101G C108U | ≤ -4.2 |
| A49C C51A C72A | ≤ -4.2 |
| A49C C51A G86C C99U C149G | ≤ -4.2 |
| A49C C51G A64U G88U C95G C99U U101G C149A | ≤ -4.2 |
| A49C C51G G136C | ≤ -4.2 |
| A49C C51U C57G A64C U102G A120U G152U | ≤ -4.2 |
| A49C C51U G59C C95U C131G | ≤ -4.2 |
| A49C C51U G81A G94C C99U C103U G143U | ≤ -4.2 |
| A49C C51U G133A G143U | ≤ -4.2 |

| Variant | polymerase ribozyme fitness (log ratio) |
| --- | --- |
| A49C C54A A64C C87A | ≤ -4.2 |
| A49C C54A A98G C125G | ≤ -4.2 |
| A49C C54A U55A A73U U77A C85A A107G | ≤ -4.2 |
| A49C C54U G80C C131G | ≤ -4.2 |
| A49C C57A C99U | ≤ -4.2 |
| A49C C57U G81A G84U C99A G100U A138C | ≤ -4.2 |
| A49C C63U G70U U77C A115G | ≤ -4.2 |
| A49C C69G C85A A120C C125U | ≤ -4.2 |
| A49C C75G A91U A150G | ≤ -4.2 |
| A49C C76A G83A G128A | ≤ -4.2 |
| A49C C85A C93G C103A C149G | ≤ -4.2 |
| A49C C87A C96G A122G C129U | ≤ -4.2 |
| A49C C87U | -4.01 |
| A49C C93U U130A G152U | ≤ -4.2 |
| A49C G50C A52C C93U U151C | ≤ -4.2 |
| A49C G50C G67C C72G G84A C108A A142G A147U | ≤ -4.2 |
| A49C G58C A66G C93G A107U A120U | ≤ -4.2 |
| A49C G59A A64G G70A G83C C93U | ≤ -4.2 |
| A49C G59A G62C G83A | ≤ -4.2 |
| A49C G62C C93A | ≤ -4.2 |
| A49C G62U C95U U101C A121G U145G | ≤ -4.2 |
| A49C G65A C85A G140A | ≤ -4.2 |
| A49C G68C C95U C123U U148A | ≤ -4.2 |
| A49C G71C C72U G83A | ≤ -4.2 |

| Variant | polymerase ribozyme fitness (log ratio) |
| --- | --- |
| A49C G83C C149A | ≤ -4.2 |
| A49C G84A | ≤ -4.2 |
| A49C G86U | ≤ -4.2 |
| A49C G86U C96G C123U U146G | ≤ -4.2 |
| A49C G92C U104A A137C | ≤ -4.2 |
| A49C G94C | -4.16 |
| A49C G94C C123G | ≤ -4.2 |
| A49C G112C A142U | ≤ -4.2 |
| A49C U53A | ≤ -4.2 |
| A49C U53A C54A C87U U102C | ≤ -4.2 |
| A49C U53A C116U | ≤ -4.2 |
| A49C U53A G81C A98U G100A C103A | ≤ -4.2 |
| A49C U53A G86U A115G | ≤ -4.2 |
| A49C U55A A150C | ≤ -4.2 |
| A49C U55A C76U C85G C108U A138U | ≤ -4.2 |
| A49C U55A G84U C85U G126C U145G U148C | ≤ -4.2 |
| A49C U55G C85A | ≤ -4.2 |
| A49C U56A G83U G112A A120C | ≤ -4.2 |
| A49C U56G G65U A73C C87A | ≤ -4.2 |
| A49C U61C G84A C108A U111G | ≤ -4.2 |
| A49C U61G A73G C99U U134A U146A A147G | ≤ -4.2 |
| A49C U61G C99G G124A | ≤ -4.2 |
| A49C U77A G86C C87U A97G | ≤ -4.2 |
| A49C U77C A89G | ≤ -4.2 |

| Variant | polymerase ribozyme fitness (log ratio) |
| --- | --- |
| A49C U77G G80C A91U C116G | ≤ -4.2 |
| A49C U101G G141U | -1.78 |
| A49C U144C | ≤ -4.2 |
| A49G A52C C85U A106G A138C | ≤ -4.2 |
| A49G A52G U55A G84C U90G G100U A113G | ≤ -4.2 |
| A49G A52G U56A G74C | ≤ -4.2 |
| A49G A52U G58C C108G U134C C149U | ≤ -4.2 |
| A49G A60U | -1.62 |
| A49G A73U G86A A98U A142U U144C | ≤ -4.2 |
| A49G A97G | -1.11 |
| A49G A122U G124U | -0.811 |
| A49G C51A A66U U82A G86A C103U | ≤ -4.2 |
| A49G C51G | -2.66 |
| A49G C54A G70U G83C | ≤ -4.2 |
| A49G C54G C76G C95A G140U A147U | ≤ -4.2 |
| A49G C54U G71U C87A A106G A121U U127C U148A | ≤ -4.2 |
| A49G C57U C75A U146G | ≤ -4.2 |
| A49G C76U A89C C96A | -2.23 |
| A49G C85A G143U | ≤ -4.2 |
| A49G C87G G88A C125A | ≤ -4.2 |
| A49G C95U | -0.995 |
| A49G G50U A73C G83C C93G C108U | ≤ -4.2 |
| A49G G58A | -0.296 |
| A49G G59C G67A G70A U77C U82C A89G C95G | ≤ -4.2 |

| Variant | polymerase ribozyme fitness (log ratio) |
| --- | --- |
| A49G G62A G70U G94C C105A A107U | ≤ -4.2 |
| A49G G71U | ≤ -4.2 |
| A49G G74C U101G G112C A122U U127A A138C | ≤ -4.2 |
| A49G G83A C99U U145G | ≤ -4.2 |
| A49G G83A U144G A147U | -1.87 |
| A49G G84A | -0.52 |
| A49G G126U | -0.157 |
| A49G U55A C79U G92U C95A G140A | ≤ -4.2 |
| A49G U56G G83C | -2.85 |
| A49G U82G C87U G94A A120G | ≤ -4.2 |
| A49U A52C C69A C85U C114U A115U C131A G141U | ≤ -4.2 |
| A49U A52C G71U G83C | ≤ -4.2 |
| A49U A73G A91C G94C G141C | ≤ -4.2 |
| A49U A89U C132U | -2.65 |
| A49U C54A U61A A106U A121C C125G U134C | ≤ -4.2 |
| A49U C57A G81A A98C U148G | ≤ -4.2 |
| A49U C69G C75A U90G | ≤ -4.2 |
| A49U C75G G92C | ≤ -4.2 |
| A49U C75U C85G | ≤ -4.2 |
| A49U C79A G83C C108U C131U G141C | ≤ -4.2 |
| A49U C85G A106U | ≤ -4.2 |
| A49U C96G | -0.972 |
| A49U C103G | ≤ -4.2 |
| A49U G62C C123U | -2.38 |

| Variant | polymerase ribozyme fitness (log ratio) |
| --- | --- |
| A49U G62U G71U U111G C123G | ≤ -4.2 |
| A49U G70U C85G U90C C131U | ≤ -4.2 |
| A49U G88A | ≤ -4.2 |
| A49U G141U A142C | ≤ -4.2 |
| A49U U53A G59A C85U A98G U148C | ≤ -4.2 |
| A49U U61G A98G C114G U148A | ≤ -4.2 |
| A49U U101C C116U | -1.49 |
| G50A A52C A97G G100A C114G G133U | ≤ -4.2 |
| G50A A52C G84U A122U G141U | -3.68 |
| G50A A52C U55A G68A G74C U109A C149G | ≤ -4.2 |
| G50A A66C G94U | ≤ -4.2 |
| G50A A89U C99U | -2.94 |
| G50A A91U | ≤ -4.2 |
| G50A A115G | -2.49 |
| G50A C51G C79A G83C A98G C123G C129A A147C | ≤ -4.2 |
| G50A C54A C75G C103U | ≤ -4.2 |
| G50A C54A C95A A107G C108U U148C C149U | ≤ -4.2 |
| G50A C54U A60C G88C | ≤ -4.2 |
| G50A C57G C87U A106G A110C U111C A115C G141A | ≤ -4.2 |
| G50A C57U C72G G86A U130G | ≤ -4.2 |
| G50A C57U C85U G128A | ≤ -4.2 |
| G50A C72U G84U C131A | ≤ -4.2 |
| G50A C75G C96G C116G U144C | ≤ -4.2 |
